Test results published in PubChem BioAssay AID1030 (National Center for Advancing Translational Sciences (NCATS), 2008).
In all, about 220,000 compounds went through this assay and about 16,000 (7.3%) were called active. This list was built around the results that the source calls inconclusive (neither active nor inactive); the mix of calls is not that of the screen. Calls come from the whole dose curve; as a rule, active = well fitted inhibition curve with a large enough effect (not every such curve was filed as active); inconclusive = small, poorly fitted or top-dose-only effect, or another doubt; inactive = no such curve, though single readings can be large or run the other way. Potencies of inconclusive entries are left out as doubtful fits.

Target: Aldehyde dehydrogenase 1A1 (Homo sapiens) (UniProt P00352)
Sequence of UniProt P00352 (P00352 whole entry, looked up): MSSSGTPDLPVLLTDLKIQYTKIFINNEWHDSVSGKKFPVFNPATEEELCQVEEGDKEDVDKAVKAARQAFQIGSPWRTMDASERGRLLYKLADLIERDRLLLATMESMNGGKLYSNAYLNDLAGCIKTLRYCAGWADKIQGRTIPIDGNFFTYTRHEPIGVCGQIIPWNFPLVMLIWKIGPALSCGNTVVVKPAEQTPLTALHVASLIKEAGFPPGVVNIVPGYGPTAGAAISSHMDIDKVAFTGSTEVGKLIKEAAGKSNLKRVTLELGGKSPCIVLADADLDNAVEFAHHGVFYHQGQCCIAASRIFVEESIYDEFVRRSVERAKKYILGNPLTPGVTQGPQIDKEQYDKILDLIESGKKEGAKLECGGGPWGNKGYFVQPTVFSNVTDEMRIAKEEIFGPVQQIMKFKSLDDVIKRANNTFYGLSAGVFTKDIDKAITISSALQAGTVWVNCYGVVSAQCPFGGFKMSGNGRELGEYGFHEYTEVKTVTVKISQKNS
Experiment: qHTS Assay for Inhibitors of Aldehyde Dehydrogenase 1 (ALDH1A1);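 for activity, negative = inhibition: plate controls were no enzyme wells and a reference inhibitor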
Conditions: Purified ALDH1A1, NADH fluorescence, propionaldehyde substrate; series mostly up to 75.3 µM
Potency is the fitted concentration of half-maximal effect; tags give direction and shape of the fitted curve.

SMILES | Potency | activity, negative = inhibition
CCc1ccc(C(=O)Nc2cc(C)ccc2F)s1 | inactive | 
CCOC(=O)/C(C#N)=C/c1ccc(N2CCN(C)CC2)cc1 | inconclusive [inhibitor, single point] | 
CN(C)c1ccc(C=Nc2cnn(C)c2C(N)=O)cc1 | active: 3.55 µM | 
COc1cccc(-c2csc(N3CCN(CC(=O)NNC(=O)c4ccco4)CC3)n2)c1 | inconclusive [inhibitor, single point] | 
S=C(NCc1ccc2c(c1)OCO2)NC1CC1 | inactive | 
CCc1ccc(NC(=S)N(CCCN2CCOCC2)Cc2ccccn2)cc1 | inconclusive [inhibitor, single point] | 
CSc1ccccc1NC(=O)COc1ccc(Cl)cc1Cl | inactive | 
COc1ccc(-n2c(=O)c(-c3ccccc3)nc3cnc(N4CCOCC4)nc32)cc1 | inconclusive [inhibitor, single point] | 
COc1cccc(C(=O)Oc2cc3c4c(c2)C(C)=CC(C)(C)N4C(=O)C3=O)c1 | active: 8.91 µM | 
O=C(c1ccncc1)N1CCC2(CCN(Cc3nccs3)CC2)CC1 | inactive | 
COc1ccc(S(=O)(=O)N2CCc3ccccc32)cc1C(=O)NCCc1ccccn1 | inconclusive [inhibitor, single point] | 
C[Si](C)(c1ccc(C(=O)O)cc1)c1ccc(C(=O)O)cc1 |  | inactive: 14% [at 13.5 µM]
COc1ccc2ccccc2c1/C=N/N1C(=O)CSC1=S | inconclusive [inhibitor, full curve, poor fit] | 
CCOC(=O)c1sc2nc(N3CCOCC3)c3c(c2c1N)CCN(C)C3 | inconclusive [inhibitor, partial curve] | 
O=C(c1cc2ccccc2o1)c1nc2c(n1O)CCCCC2 | inactive | 
C=C(C)CSc1ncc(-c2cccc(C(F)(F)F)c2)cn1 | inconclusive [inhibitor, single point] | 
CCc1nc(-c2ccc(OC)c(OC)c2)cc2cc(OC)c(OC)cc12 | inconclusive [inhibitor, single point] | 
Cc1cc(C)nc(-n2cc(C(=O)c3cc(F)ccc3O)cn2)n1 | active: 10 µM | 
CCN(CC)S(=O)(=O)c1cccc(C(=O)Nc2ccccc2C(=O)N2CCOCC2)c1 | inconclusive [inhibitor, single point] | 
OC(COc1ccccc1)CN1CCOCC1 (centres undefined) | inactive | 
COCCOC(=O)/C(C#N)=C/c1cn(Cc2ccccc2)nc1-c1cccnc1 | active: 20 µM | 
Cc1cc(C)cc(NC(=O)c2ccccc2CC[N+](=O)[O-])c1 | active: 2.82 µM | 
Cn1c(=O)c2c(nc(NC(Cc3ccccc3)C(=O)O)n2Cc2ccccc2)n(C)c1=O (centres undefined) | inconclusive [inhibitor, single point] | 
COc1ccccc1-c1ccc2ncnc(N3CCNCC3)c2c1 | inconclusive [inhibitor, single point] | 
O=C(C1CCCN(S(=O)(=O)c2cccs2)C1)N1CCN(C2CCCCC2)CC1 (centres undefined) | inconclusive [inhibitor, single point] | 

SMILES | Potency | activity, negative = inhibition
COc1cc(NC(=O)CSc2ccc3c(c2)OCCO3)cc(OC)c1OC | inconclusive [inhibitor, single point] | 
C/C=C(\C)CN1CCN(c2cc(C)ccc2C)CC1 | active: 15.8 µM | 
CCCC(=O)Nc1sc2c(c1C(=O)OC)C(C(=O)OC)CC2 (centres undefined) | inconclusive [inhibitor, single point] | 
CC1CN=C(c2cccn2Cc2ccc(F)cc2Cl)O1 (centres undefined) | inactive | 
N#CCN1C(=O)C2CCCN2c2ccc(S(=O)(=O)N3CCOCC3)cc21 (centres undefined) | active: 10 µM | 
COc1cc(/C=N/Nc2ccc(Cl)c(C(=O)O)c2)ccc1OCC(=O)N1C(C)CCCC1C (centres undefined) | inconclusive [inhibitor, single point] | 
Cn1ccnc1 | inactive | 
O=C(Nc1ccc(S(=O)(=O)Nc2nccs2)cc1)c1cc(=O)[nH]c2ccccc12 | inconclusive [inhibitor, single point] | 
CCCCCCCn1c(=N)n(CC(=O)c2ccco2)c2ccccc21 | inactive | 
CCOc1ccc(NC(=O)CN2CCN(CC(=O)c3ccc(OC)c(OC)c3)CC2)cc1 | active: 7.08 µM | 
CC(=O)NCc1nnc2c3ccccc3c(-c3ccccc3)nn12 | inactive | 
CCCCn1c(-c2nn(C)c(C)c2Cl)n[nH]c1=S | inactive | 
Cc1ccc2cc(C)c3nnc(SCC(=O)Nc4nc5c(s4)CCCC5)n3c2c1 | inactive | 
COc1ccccc1CN(C(=O)Cc1cccs1)C(C(=O)NC1CCCC1)c1ccncc1 (centres undefined) | inconclusive [inhibitor, full curve] | 
CCC(C)c1ccc(NC(=O)CSc2nncn2N)cc1 (centres undefined) | inconclusive [inhibitor, single point] | 
COc1ccc(CCNC(=O)Cn2c(=O)n(-c3ccc(C)c(F)c3)c(=O)c3sccc32)cc1OC | active: 6.31 µM | 
Cc1ccc(NC(=O)Cc2nc(CSc3nnc(-c4ccc5c(c4)OCO5)o3)cs2)cc1 | inconclusive [inhibitor, single point] | 
COc1ccc(-n2c(O)c(C=NC3CC3)c(=O)[nH]c2=O)cc1 | inconclusive [inhibitor, single point] | 
CS(=O)(=O)N1N=C(c2ccco2)CC1c1ccc(Cl)cc1 (centres undefined) | active: 8.91 µM | 
Cc1ccc(S(=O)(=O)Oc2ccc(C(c3c(C)[nH][nH]c3=O)c3c(C)[nH][nH]c3=O)cc2)cc1 | inconclusive [inhibitor, full curve] | 
CCCCn1c(=N)n(CC(=O)C(C)(C)C)c2ccccc21 | inconclusive [inhibitor, partial curve, poor fit] | 
CCOC(=O)C1CC(c2ccccc2)=NNC1=O (centres undefined) | inactive | 
C=CCn1c(SCn2nnc3ccccc3c2=O)nnc1-c1ccc(Br)cc1 | inactive | 
O=C(CON1C(=O)c2ccccc2C1=O)c1ccccc1 | inconclusive [inhibitor, single point] | 
